Assay results as given in the supplement of paper PMC12015411.
Bacterial growth in Mueller-Hinton broth at 37 °C with the drug at the dose given, alone or with nitroxoline. Checkerboards on E. coli BW25113: OD600 at the end of exponential growth as a fraction of no-drug wells. Colistin series: OD595 at 10.75 h as a fraction of the colistin-free well. 1 = full growth, lower = more inhibition. No active / inactive call per well. Checkerboard doses stop near each drug's IC75, and their values pile up at 1, as if capped there. Colistin and gentamicin are mixtures; one drawing stands for each.

Test system: Escherichia coli BW25113
Test: growth relative to no-drug wells (fraction of no-drug control); higher = more growth, less inhibition
Method: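 8 x 8 checkerboard in cation-adjusted Mueller-Hinton broth at 37 °C; OD600 at the end of exponential growth as a fraction of no-drug wells, two biological replicates.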

O=C(O)c1cn(C2CC2)c2cc(N3CCNCC3)c(F)cc2c1=O [Ciprofloxacin] + Oc1ccc([N+](=O)[O-])c2cccnc12 [nitroxoline]
growth
Conditions | nitroxoline concentration 0.136 µg/ml | nitroxoline concentration 0.255 µg/ml | nitroxoline concentration 0.374 µg/ml | nitroxoline concentration 0.493 µg/ml | nitroxoline concentration 0.612 µg/ml | nitroxoline concentration 0.731 µg/ml | nitroxoline concentration 0.85 µg/ml
0.0005 µg/ml | 1 | 1 | 0.839 | 0.653 | 0.585 | 0.469 | 0.432
0.0008 µg/ml | 1 | 1 | 0.8 | 0.637 | 0.547 | 0.44 | 0.427
0.001 µg/ml | 1 | 0.989 | 0.868 | 0.6767 | 0.553 | 0.507 | 0.426
0.0016 µg/ml | 0.953 | 0.8922 | 0.781 | 0.636 | 0.535 | 0.51 | 0.436
0.0019 µg/ml | 0.883 | 0.932 | 0.796 | 0.682 | 0.527 | 0.499 | 0.434
0.0033 µg/ml | 0.551 | 0.703 | 0.589 | 0.486 | 0.445 | 0.365 | 0.376
0.0038 µg/ml | 0.467 | 0.475 | 0.403 | 0.251 | 0.203 | 0.173 | 0.242

CN[C@H](CC(C)C)C(=O)N[C@H]1C(=O)N[C@@H](CC(N)=O)C(=O)N[C@H]2C(=O)N[C@H]3C(=O)N[C@H](C(=O)N[C@H](C(=O)O)c4cc(O)cc(O)c4-c4cc3ccc4O)[C@H](O)c3ccc(c(Cl)c3)Oc3cc2cc(c3O[C@@H]2O[C@H](CO)[C@@H](O)[C@H](O)[C@H]2O[C@H]2C[C@](C)(N)[C@H](O)[C@H](C)O2)Oc2ccc(cc2Cl)[C@H]1O [Vancomycin] + Oc1ccc([N+](=O)[O-])c2cccnc12 [nitroxoline]
growth
Conditions | nitroxoline concentration 0.136 µg/ml | nitroxoline concentration 0.255 µg/ml | nitroxoline concentration 0.374 µg/ml | nitroxoline concentration 0.493 µg/ml | nitroxoline concentration 0.612 µg/ml | nitroxoline concentration 0.731 µg/ml | nitroxoline concentration 0.75 µg/ml
13.5714 µg/ml | 0.947 | 1 | 1 | 0.9972 | 0.771 | 0.768 | 0.7039
25.4762 µg/ml | 0.969 | 0.984 | 0.962 | 0.641 | 0.549 | 0.522 | 0.338
37.381 µg/ml | 0.921 | 0.811 | 0.68 | 0.261 | 0.296 | 0.22 | 0.259
49.2857 µg/ml | 0.518 | 0.679 | 0.349 | 0.217 | 0.171 | 0.0144 | 0.022
61.1905 µg/ml | 0.379 | 0.578 | 0.22 | 0.0777 | 0.00587 | 0.00921 | 0.0124
73.0952 µg/ml | 0.476 | 0.416 | 0.0614 | 0.0015 | 0.00587 | 0.00829 | 0.00852
85 µg/ml | 0.447 | 0.317 | 0 | 0.00092 | 0.00806 | 0.00668 | 0.00713

O=C1CN(/N=C/c2ccc([N+](=O)[O-])o2)C(=O)N1 [Nitrofurantoin]
nitroxoline concentration 0 µg/ml
Conditions | growth
0.75 µg/ml | 0.877
1.29 µg/ml | 0.89
1.5 µg/ml | 0.942
2.58 µg/ml | 0.834
3 µg/ml | 0.795
5.16 µg/ml | 0.0555
6 µg/ml | 0.135

CN(C)c1cc(NC(=O)CNC(C)(C)C)c(O)c2c1C[C@H]1C[C@H]3[C@H](N(C)C)C(O)=C(C(N)=O)C(=O)[C@@]3(O)C(O)=C1C2=O [Tigecycline]
nitroxoline concentration 0 µg/ml
Conditions | growth
0.0125 µg/ml | 0.947
0.0215 µg/ml | 0.946
0.025 µg/ml | 1
0.043 µg/ml | 0.957
0.05 µg/ml | 1
0.086 µg/ml | 0.9982
0.1 µg/ml | 0.959

CN(C)c1cc(NC(=O)CNC(C)(C)C)c(O)c2c1C[C@H]1C[C@H]3[C@H](N(C)C)C(O)=C(C(N)=O)C(=O)[C@@]3(O)C(O)=C1C2=O [Tigecycline] + Oc1ccc([N+](=O)[O-])c2cccnc12 [nitroxoline]
growth
Conditions | nitroxoline concentration 0.136 µg/ml | nitroxoline concentration 0.255 µg/ml | nitroxoline concentration 0.374 µg/ml | nitroxoline concentration 0.493 µg/ml | nitroxoline concentration 0.612 µg/ml | nitroxoline concentration 0.731 µg/ml | nitroxoline concentration 0.85 µg/ml
0.0125 µg/ml | 1 | 1 | 0.859 | 0.673 | 0.583 | 0.493 | 0.484
0.0215 µg/ml | 1 | 1 | 0.862 | 0.6763 | 0.552 | 0.492 | 0.514
0.025 µg/ml | 1 | 1 | 0.862 | 0.6776 | 0.602 | 0.517 | 0.532
0.043 µg/ml | 1 | 1 | 0.86 | 0.72 | 0.628 | 0.567 | 0.51
0.05 µg/ml | 1 | 1 | 0.883 | 0.754 | 0.647 | 0.581 | 0.523
0.086 µg/ml | 1 | 0.989 | 0.814 | 0.713 | 0.614 | 0.543 | 0.426
0.1 µg/ml | 1 | 0.897 | 0.77 | 0.696 | 0.616 | 0.482 | 0.447
